≈ marks a conversion by molar mass, not a printed value.
Test system: M. tuberculosis
Assay: microbe, parasite or virus in culture
Assay type: cell-based
Conditions: Mycobacterium tuberculosis, H37RV; for MIC90: read-out: In vitro MIC90, strain H37Rv, WT; for MIC: read-out: MIC values

In the case of `CO[C@H]1C[C@H](O[C@@H]2/C(C)=C/C[C@@H]3C[C@@H](C[C@]4(CC[C@H](C)[C@@H](C5CCCCC5)O4)O3)OC(=O)[C@@H]3C=C(C)/C(=N/O)[C@H]4OC/C(=C\C=C\[C@@H]2C)[C@]43O)O[C@@H](C)[C@@H]1O` [Selamectin], the MIC90 is reported as 3 µg/mL (≈ 3.9 µM) and the MIC is reported as 3 µg/mL (≈ 3.9 µM).
In the case of `CO/N=C1\C[C@]2(C[C@@H]3C[C@@H](C/C=C(\C)C[C@@H](C)/C=C/C=C4\CO[C@@H]5[C@H](O)C(C)=C[C@@H](C(=O)O3)[C@]45O)O2)O[C@H](/C(C)=C/C(C)C)[C@H]1C` [Moxidectin], the MIC90 is reported as 3 µg/mL (≈ 4.69 µM) and the MIC is reported as 3 µg/mL (≈ 4.69 µM).

From patent US9308215B2, “Avermectins and milbemycins as anti-mycobacterial agents” (priority 2013, dated 2016)
